Experimental data: the supplement of paper PMC9446081
The whole screen tested about 39,000 compounds, of which about 220 (0.56%) showed activity. This is one part of the list.

System: Escherichia coli K-12 BW25113
Experiment: relative growth (OD600 normalised to plate interquartile mean) (fraction); higher = less growth inhibition, active = 0.2 or less
Conditions: 50 µM; LB; incubation time: overnight (16-24 h)
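Also: static incubation at 37 °C against the wild-type strain, values averaged over two biological replicates.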

SMILES	relative growth
C[C@H](CO)N1C[C@H](C)[C@@H](CN(C)Cc2ccc3c(c2)OCO3)Oc2c(NC(=O)C3CCOCC3)cccc2C1=O	inactive: 0.988
C[C@H](CO)N1C[C@H](C)[C@H](CN(C)C(=O)NC2CCCCC2)OCCCC[C@H](C)Oc2ccc(NC(=O)Nc3ccc(F)cc3)cc2C1=O	inactive: 1.02
COc1ccc(S(=O)(=O)N(C)C[C@H]2Oc3ccc(NS(=O)(=O)c4ccc(F)cc4)cc3CC(=O)N([C@@H](C)CO)C[C@@H]2C)cc1	inactive: 1.01
CC(C)NC(=O)Nc1ccc2c(c1)C(=O)N([C@H](C)CO)C[C@H](C)[C@H](CN(C)C(=O)Nc1cccc3ccccc13)OCCCC[C@@H](C)O2	inactive: 1.01
C[C@H](CO)N1C[C@H](C)[C@@H](CN(C)S(C)(=O)=O)OCc2cnnn2CCCC1=O	inactive: 1.07
NS(=O)(=O)c1cc(C2(O)NC(=O)c3ccccc32)ccc1Cl (stereo not drawn)	inactive: 0.986
O=C(C[C@@H]1C[C@H]2c3cc(NC(=O)NC4CCCC4)ccc3O[C@H]2[C@H](CO)O1)NCc1ccc(Oc2ccccc2)cc1	inactive: 0.982
COc1cccc(S(=O)(=O)N2C[C@@H](O)COC[C@H]3O[C@@H](CC(=O)NCCCN4CCOCC4)CC[C@@H]32)c1	inactive: 1
O=C(C[C@@H]1C[C@H]2c3cc(NC(=O)Cc4ccncc4)ccc3O[C@H]2[C@H](CO)O1)NCc1ccc2c(c1)OCO2	inactive: 0.995
COc1ccc(NC(=O)N(C)C[C@H]2Oc3ccc(NC(=O)CCN4CCOCC4)cc3CC(=O)N([C@H](C)CO)C[C@@H]2C)cc1	inactive: 1.01
CCCC(=O)Nc1ccc2c(c1)C(=O)N(C)[C@@H]1CC[C@@H](CC(=O)NCCN3CCCCC3)O[C@H]1CO2	inactive: 0.966
O=C1NN=COc2ccccc21	inactive: 1
COc1ccc(NC(=O)N2CCCCN3[C@H](COCCN(C)C)[C@H](c4ccc(C#Cc5ccccc5)cc4)[C@@H]3C2)cc1	inactive: 0.969
O=C(O)/C=C/C(=O)NN1C(=O)c2ccccc2C1=O	inactive: 1.04
CC(C)NC(=O)N(C)C[C@@H]1Oc2ccc(NC(=O)CCC(F)(F)F)cc2C(=O)N([C@@H](C)CO)C[C@@H]1C	inactive: 0.993
COC(=O)c1c2oc(c1C(=O)OC)C(=O)N[C@H](Cc1ccccc1)Cn1cc(nn1)CNC(=O)[C@H](Cc1ccccc1)NC(=O)N[C@@H](CO)CC2	inactive: 0.999
C[C@H]1CN([C@@H](C)CO)C(=O)c2cccc(NC(=O)C3CCOCC3)c2O[C@@H]1CN(C)S(=O)(=O)c1cn(C)cn1	inactive: 0.992
O=C(O)CNC(=O)C(=O)O	inactive: 1.02
C[C@@H]1CN([C@@H](C)CO)C(=O)Cc2cc(NC(=O)Nc3ccc(C(F)(F)F)cc3)ccc2O[C@H]1CN(C)Cc1ccccc1	inactive: 0.956
CC(C)NC(=O)N(C)C[C@@H]1OCCCC[C@H](C)Oc2ccc(NC(=O)C3CCCCC3)cc2C(=O)N([C@H](C)CO)C[C@H]1C	inactive: 1.03
Cc1ccc(S(=O)(=O)N(C)C[C@H]2Oc3ccc(NC(=O)NC(C)C)cc3C(=O)N([C@H](C)CO)C[C@@H]2C)cc1	inactive: 0.959

SMILES	relative growth
C[C@@H]1CCCCO[C@H](CN(C)C(=O)Nc2ccc(C(F)(F)F)cc2)[C@H](C)CN([C@H](C)CO)C(=O)c2cc(NS(=O)(=O)c3ccc(Cl)cc3)ccc2O1	inactive: 1.03
CN1CCC(OC(c2ccccc2)c2ccccc2)CC1.Cl	inactive: 1.02
COC1CC2CCC(C)C(O)(O2)C(=O)C(=O)N2CCCCC2C(=O)OC(C(C)CC2CCC(O)C(OC)C2)CC(=O)C(C)C=C(C)C(O)C(OC)C(=O)C(C)CC(C)C=CC=CC=C1C (stereo not drawn)	inactive: 1.01
COc1cccc(CNC(=O)C[C@H]2C=C[C@@H](NC(=O)C3CCOCC3)[C@H](CO)O2)c1	inactive: 0.957
C[C@H]1CN([C@@H](C)CO)C(=O)CCCn2nncc2CO[C@H]1CN(C)C(=O)c1ccc(N2CCN(C)CC2)cc1	inactive: 0.987
C[C@H](CO)N1C[C@H](C)[C@H](CN(C)C(=O)C2CCCCC2)OCCCC[C@H](C)Oc2ccc(NC(=O)Nc3cccc4ccccc34)cc2C1=O	inactive: 1.03
CC(O)CN(CCN(CC(C)O)CC(C)O)CC(C)O (stereo not drawn)	inactive: 0.938
Cc1noc(C)c1NC(=O)N(C)C[C@@H]1OCCCC[C@H](C)Oc2ccc(NC(=O)CCC(F)(F)F)cc2C(=O)N([C@H](C)CO)C[C@H]1C	inactive: 1
Cc1noc(C)c1S(=O)(=O)Nc1ccc2c(c1)CC(=O)N([C@H](C)CO)C[C@H](C)[C@@H](CN(C)C(=O)NC(C)C)O2	inactive: 0.962
COc1ccc(S(=O)(=O)N2C[C@H](O)COC[C@@H]3O[C@H](CC(=O)N[C@@H]4CCN(Cc5ccccc5)C4)CC[C@H]32)cc1	inactive: 1
COCC#Cc1ccc2c(c1)O[C@@H](CN(C)C(=O)CN(C)C)[C@H](C)CN([C@H](C)CO)S2(=O)=O	inactive: 0.986
COc1cccc(NC(=O)N[C@@H]2C=C[C@@H](CC(=O)N3CCOCC3)O[C@@H]2CO)c1	inactive: 1.02
CC(=O)N1c2ccccc2C2=NNC(=S)N[C@]21O	inactive: 0.994
C[C@@H]1CCCCO[C@@H](CN(C)C(=O)Nc2ccccc2)[C@@H](C)CN([C@@H](C)CO)C(=O)c2cc(NC(=O)NC3CCCCC3)ccc2O1	inactive: 1.01
Nc1ccc(Nc2ccccc2)cc1	inactive: 1.03
C[C@H](CO)N1C[C@H](C)[C@@H](CN(C)Cc2ccncc2)Oc2ccc(NC(=O)Nc3ccc(C(F)(F)F)cc3)cc2CC1=O	inactive: 1
COc1ccc(NC(=O)N(C)C[C@H]2Oc3cc(C#CCN(C)C)ccc3S(=O)(=O)N([C@H](C)CO)C[C@H]2C)cc1	inactive: 1
C[C@H](CO)N1C[C@H](C)[C@H](CN(C)C(=O)CCC(F)(F)F)OCCCC[C@H](C)Oc2ccc(NS(=O)(=O)c3ccc(Cl)cc3)cc2C1=O	inactive: 1.01
O=C(Nc1ccno1)N1CCOCC1	inactive: 0.996
O=C(O)C[C@H]1CC[C@@H]2[C@H](COC[C@@H](O)CN2S(=O)(=O)c2ccc(F)cc2)O1	inactive: 1.01
C[C@@H]1CN([C@@H](C)CO)C(=O)c2cc(NC(=O)Cn3cnnn3)ccc2O[C@@H]1CN(C)S(=O)(=O)c1cccs1	inactive: 1.02

SMILES	relative growth
COCC(=O)Nc1ccc2c(c1)C(=O)N(C)C[C@@H](OC)[C@H](C)CN(Cc1ccccc1F)[C@@H](C)CO2	inactive: 1.01
CC(C)[C@H]1NC(=O)CNC1=O	inactive: 1.01
C[C@@H]1CN([C@H](C)CO)C(=O)c2cccc(NC(=O)C3CCOCC3)c2O[C@@H]1CN(C)S(=O)(=O)c1ccc(Cl)cc1	inactive: 1.01
C[C@H]1CCCCO[C@H](CN(C)C(=O)CCCN(C)C)[C@@H](C)CN([C@@H](C)CO)C(=O)c2cc(NC(=O)Nc3cccc4ccccc34)ccc2O1	inactive: 1.03
O=C(O)CCCCCCCC(=O)O	inactive: 1.12
C[C@@H]1CCCCO[C@@H](CN(C)S(C)(=O)=O)[C@@H](C)CN([C@H](C)CO)C(=O)c2cc(NC(=O)c3ccncc3)ccc2O1	inactive: 0.987
C[C@@H]1CN([C@@H](C)CO)C(=O)Cc2cc(NS(=O)(=O)c3cccs3)ccc2O[C@@H]1CN(C)S(=O)(=O)c1cn(C)cn1	inactive: 0.981
COc1ccccc1CNC(=O)C[C@@H]1C[C@H]2c3cc(NC(=O)c4cccnc4)ccc3O[C@H]2[C@H](CO)O1	inactive: 0.99
COc1ccc(CN(C)C[C@H]2Oc3ccc(NC(=O)Cn4cnnn4)cc3CC(=O)N([C@H](C)CO)C[C@H]2C)cc1	inactive: 1.02
C[C@@H]1CN([C@H](C)CO)S(=O)(=O)c2ccc(C#Cc3ccncc3)cc2O[C@@H]1CN(C)S(=O)(=O)c1ccccc1	inactive: 1.01
C[C@@H]1CN([C@H](C)CO)C(=O)c2cccc(NC(=O)c3nc4ccccc4s3)c2O[C@@H]1CN(C)S(C)(=O)=O	inactive: 1.01
Cc1noc(C)c1NC(=O)N(C)C[C@@H]1OCCCC[C@@H](C)Oc2ccc(NC(=O)Cc3ccccc3)cc2C(=O)N([C@H](C)CO)C[C@@H]1C	inactive: 0.998
CO[C@H](C(=O)N(C)C[C@@H]1OCc2ccccc2-c2c(n(C)c3ccccc23)C(=O)N([C@@H](C)CO)C[C@@H]1C)c1ccccc1	inactive: 1.01
COc1ccc(NC(=O)Nc2cccc3c2O[C@H](CN(C)Cc2ccc(Oc4ccccc4)cc2)[C@H](C)CN([C@@H](C)CO)C3=O)cc1	inactive: 0.931
FC(F)(F)C(Cl)Br (stereo not drawn)	inactive: 0.978
CN(C)CCCNC(=O)C[C@@H]1CC[C@H]2[C@H](COc3ccc(NC(=O)c4cccc(F)c4)cc3C(=O)N2C)O1	inactive: 1.02
O=C(O)CN1C(=O)c2cccc3cccc(c23)C1=O	inactive: 0.99
C[C@H](CO)N1C[C@H](C)[C@H](CN(C)CC2CC2)Oc2c(NS(=O)(=O)c3ccc(F)cc3)cccc2C1=O	inactive: 0.997
COCC(=O)N(C)C[C@@H]1Oc2cc(-c3ccc(C#N)cc3)ccc2S(=O)(=O)N([C@@H](C)CO)C[C@H]1C	inactive: 1
COc1ccc(S(=O)(=O)Nc2ccc3c(c2)C(=O)N([C@@H](C)CO)C[C@@H](C)[C@@H](CN(C)S(=O)(=O)c2cccs2)O3)cc1	inactive: 1.02
CC(=O)N1Cc2cc(C(=O)NCc3cccc(F)c3)nc(-c3cccc(C4=CCCCC4)c3)c2[C@H]1CCO	inactive: 0.856
